According to patent US11542297B2, “Compositions and methods for treating CNS disorders” (Sage Therapeutics, Inc., priority 2014, dated 2023):
At least one structure is not confirmed: it was looked up by name or label, or the drawing left a doubt.

What follows are compounds tested against rat brain cortical membranes ([35S]-TBPS binding, GABA receptor complex) (assay: Steroid inhibition of [35S]-TBPS binding). Details: in the presence of 5 μM GABA, read-out: 35S-TBPS Radioligand Displacement (IC50).
Protocol: TBPS binding assays using rat brain cortical membranes in the presence of 5 μM GABA has been described (Gee et al, J. Pharmacol. Exp. Ther. 1987, 241, 346-353; Hawkinson et al, Mol. Pharmacol. 1994, 46, 977-985; Lewin, A. H et al., Mol. Pharmacol. 1989, 35, 189-194).
Briefly, cortices are rapidly removed following decapitation of carbon dioxide-anesthetized Sprague-Dawley rats (200-250 g). The cortices are homogenized in 10 volumes of […] using a glass/teflon homogenizer and centrifuged at 1500×g for 10 min at 4° C. The resultant supernatants are centrifuged at 10,000×g for 20 min at 4° C. to obtain the P2 pellets. The P2 pellets are resuspended in 200 mM NaCl/50 mM Na—K phosphate pH 7.4 buffer and centrifuged at 10,000×g for 10 min at 4° C. This washing procedure is repeated twice and the pellets are resuspended in 10 volumes of buffer. Aliquots (100 μL) of the membrane suspensions are incubated with 3 nM [^35S]-TBPS and 5 μL aliquots of test drug dissolved in dimethyl sulfoxide (DMSO) (final 0.5%) in the presence of 5 μM GABA. The incubation is brought to a final volume of 1.0 mL with buffer. […] Following a 90 min incubation at room temp, the assays are terminated by filtration through glass fiber filters (Schleicher and Schuell No. 32) using a cell harvester (Brandel) and rinsed three times with ice-cold buffer. Filter bound radioactivity is measured by liquid scintillation spectrometry. Non-linear curve fitting of the overall data for each drug averaged for each concentration is done using Prism (GraphPad).
Various compounds are or can be screened to determine their potential as modulators of [^35S]-TBPS binding in vitro. These assays are or can be performed in accordance with the above discussed procedures.
C[C@@]1(O)CC[C@@]2(C)[C@H](CC[C@@H]3[C@@H]2CC[C@]2(C)[C@@H](C(=O)Cn4nnc5ncc(Cl)cc54)CC[C@@H]32)C1 [Compound 49] showed an IC50 of 10 to 50 nM.
C[C@@]1(O)CC[C@@]2(C)[C@@H](CC[C@@H]3[C@@H]2CC[C@]2(C)[C@@H](C(=O)Cn4nnc5cc(F)c(F)cc54)CC[C@@H]32)C1 [Compound 124] showed an IC50 of less than 10 nM.
CNC(=O)c1cnn(CC(=O)[C@H]2CC[C@H]3[C@@H]4CC[C@H]5C[C@](C)(O)CC[C@]5(C)[C@H]4CC[C@]23C)c1 [Compound 157] gave an IC50 greater than 500 nM.
With COC[C@@]1(O)CC[C@@]2(C)[C@@H](CC[C@@H]3[C@@H]2CC[C@]2(C)[C@@H](C(=O)Cn4cc(N)cn4)CC[C@@H]32)C1 [Compound 181] the IC50 was 100 to 500 nM.
In the case of COC[C@@]1(O)CC[C@@]2(C)[C@@H](CC[C@@H]3[C@@H]2CC[C@]2(C)[C@@H](C(=O)Cn4cc(C(=O)O)cn4)CC[C@@H]32)C1 [Compound 160], the IC50 is reported as greater than 500 nM.
Compound C[C@@]1(O)CC[C@@]2(C)[C@H](CC[C@@H]3[C@@H]2CC[C@]2(C)[C@@H](C(=O)Cn4cc5ccccc5n4)CC[C@@H]32)C1 [Compound 26] has an IC50 of less than 10 nM.
CSc1ccc2nn(CC(=O)[C@H]3CC[C@H]4[C@@H]5CC[C@H]6C[C@](C)(O)CC[C@]6(C)[C@H]5CC[C@]34C)nc2c1 [Compound 249] was tested, and the IC50 was less than 10 nM.
In the case of C[C@@]1(O)CC[C@@]2(C)[C@H](CC[C@@H]3[C@@H]2CC[C@]2(C)[C@@H](C(=O)Cn4cc(C(=O)O)nn4)CC[C@@H]32)C1 [Compound 212], the IC50 is reported as greater than 500 nM.
C[C@@]1(O)CC[C@@]2(C)[C@@H](CC[C@@H]3[C@@H]2CC[C@]2(C)[C@@H](C(=O)Cn4nnc5ccc(F)cc54)CC[C@@H]32)C1 [Compound 245] showed an IC50 of 10 to 50 nM.
Compound CCO[C@H]1C[C@@]2(C)[C@@H](CC[C@H]3[C@@H]4CC[C@H](C(=O)Cn5ccnn5)[C@@]4(C)CC(=O)[C@@H]32)C[C@@H]1O [Compound 7] has an IC50 greater than 500 nM.
In the case of C[C@@]1(O)CC[C@@]2(C)[C@H](CC[C@@H]3[C@@H]2CC[C@]2(C)[C@@H](C(=O)Cn4nc5ccc(F)cc5n4)CC[C@@H]32)C1 [Compound 21], the IC50 is reported as less than 10 nM.
Compound C[C@@]1(O)CC[C@@]2(C)[C@H](CC[C@@H]3[C@@H]2CC[C@]2(C)[C@@H](C(=O)Cn4nnc5cc(F)cc(F)c54)CC[C@@H]32)C1 [Compound 29] has an IC50 of less than 10 nM.
Compound C[C@@]1(O)CC[C@@]2(C)[C@H](CC[C@@H]3[C@@H]2CC[C@]2(C)[C@@H](C(=O)Cn4nnc5ccc(OC(F)(F)F)cc54)CC[C@@H]32)C1 [Compound 105] has an IC50 of 10 to 50 nM.
Compound C[C@@]1(O)CC[C@@]2(C)[C@H](CC[C@@H]3[C@@H]2CC[C@]2(C)[C@@H](C(=O)Cn4nc5ccc(Cl)cc5n4)CC[C@@H]32)C1 [Compound 35] has an IC50 of less than 10 nM.
COc1ccc2nn(CC(=O)[C@H]3CC[C@H]4[C@@H]5CC[C@@H]6C[C@](C)(O)CC[C@]6(C)[C@H]5CC[C@]34C)nc2c1 [Compound 14] showed an IC50 of less than 10 nM.
In the case of COc1ccc2c(c1)nnn2CC(=O)[C@H]1CC[C@H]2[C@@H]3CC[C@@H]4C[C@](C)(O)CC[C@]4(C)[C@H]3CC[C@]12C [Compound 15], the IC50 is reported as less than 10 nM.
Compound C[C@@]1(O)CC[C@@]2(C)[C@H](CC[C@@H]3[C@@H]2CC[C@]2(C)[C@@H](C(=O)Cn4cc(C(N)=O)nn4)CC[C@@H]32)C1 [Compound 213] has an IC50 greater than 500 nM.
Cc1nnn(CC(=O)[C@H]2CC[C@H]3[C@@H]4CC[C@@H]5C[C@](C)(O)CC[C@]5(C)[C@H]4CC[C@]23C)n1 [Compound 32] showed an IC50 of less than 10 nM.
C[C@@]1(O)CC[C@@]2(C)[C@H](CC[C@@H]3[C@@H]2CC[C@]2(C)[C@@H](C(=O)Cn4nc5ccc(OC(F)(F)F)cc5n4)CC[C@@H]32)C1 [Compound 106] showed an IC50 of 50 to 100 nM.
For COc1ccc2nnn(CC(=O)[C@H]3CC[C@H]4[C@@H]5CC[C@@H]6C[C@](C)(O)CC[C@]6(C)[C@H]5CC[C@]34C)c2c1 [Compound 16], the IC50 was less than 10 nM.
COC[C@@]1(O)CC[C@@]2(C)[C@@H](CC[C@@H]3[C@@H]2CC[C@]2(C)[C@@H](C(=O)Cn4cc([N+](=O)[O-])cn4)CC[C@@H]32)C1 [Compound 180] showed an IC50 of 50 to 100 nM.
With C[C@@]1(O)CC[C@@]2(C)[C@H](CC[C@@H]3[C@@H]2CC[C@]2(C)[C@@H](C(=O)Cn4cc(Cl)cn4)CC[C@@H]32)C1 [Compound 133] the IC50 was less than 10 nM.
Work on COC[C@@]1(O)CC[C@@]2(C)[C@@H](CC[C@@H]3[C@@H]2CC[C@]2(C)[C@@H](C(=O)Cn4cc5cc(Cl)ccc5n4)CC[C@@H]32)C1 [Compound 191] yielded an IC50 of less than 10 nM.
For C[C@@]1(O)CC[C@@]2(C)[C@H](CC[C@@H]3[C@@H]2CC[C@]2(C)[C@@H](C(=O)Cn4nnc5ccc(F)cc54)CC[C@@H]32)C1 [Compound 22], the IC50 was less than 10 nM.
Work on COC[C@@]1(O)CC[C@@]2(C)[C@@H](CC[C@@H]3[C@@H]2CC[C@]2(C)[C@@H](C(=O)Cn4nnc5ccc(Cl)cc54)CC[C@@H]32)C1 [Compound 185] yielded an IC50 of less than 10 nM.
Work on C[C@@]1(O)CC[C@@]2(C)[C@H](CC[C@@H]3[C@@H]2CC[C@]2(C)[C@@H](C(=O)Cn4nnc5ccc(Cl)cc54)CC[C@@H]32)C1 [Compound 36] yielded an IC50 of less than 10 nM.
C[C@@]1(O)CC[C@@]2(C)[C@H](CC[C@@H]3[C@@H]2CC[C@]2(C)[C@@H](C(=O)Cn4ccc(C(F)(F)F)n4)CC[C@@H]32)C1 [Compound 19] gave an IC50 of less than 10 nM.
For CCOC(=O)c1cnn(CC(=O)[C@H]2CC[C@H]3[C@@H]4CC[C@@H]5C[C@](C)(O)CC[C@]5(C)[C@H]4CC[C@]23C)c1 [Compound 204], the IC50 was less than 10 nM.
C[C@@]1(O)CC[C@@]2(C)[C@H](CC[C@@H]3[C@@H]2CC[C@]2(C)[C@@H](C(=O)Cn4nc5cc(F)cc(F)c5n4)CC[C@@H]32)C1 [Compound 28] gave an IC50 of less than 10 nM.
Compound COC[C@@]1(O)CC[C@@]2(C)[C@@H](CC[C@@H]3[C@@H]2CC[C@]2(C)[C@@H](C(=O)Cn4nc5ccc(Cl)cc5n4)CC[C@@H]32)C1 [Compound 165] has an IC50 of less than 10 nM.
In the case of C[C@@]1(O)CC[C@@]2(C)[C@H](CC[C@@H]3[C@@H]2CC[C@]2(C)[C@@H](C(=O)Cn4ccc(C#N)n4)CC[C@@H]32)C1 [Compound 24], the IC50 is reported as less than 10 nM.
For C[C@@]1(O)CC[C@@]2(C)[C@H](CC[C@@H]3[C@@H]2CC[C@]2(C)[C@@H](C(=O)Cn4nnc5c(F)cccc54)CC[C@@H]32)C1 [Compound 18], the IC50 was less than 10 nM.
C[C@@]1(O)CC[C@@]2(C)[C@H](CC[C@@H]3[C@@H]2CC[C@]2(C)[C@@H](C(=O)Cn4nnc5cc(F)ccc54)CC[C@@H]32)C1 [Compound 23] was tested, and the IC50 was less than 10 nM.
In the case of C[C@@]1(O)CC[C@@]2(C)[C@H](CC[C@@H]3[C@@H]2CC[C@]2(C)[C@@H](C(=O)Cn4nc5cc(Cl)cnc5n4)CC[C@@H]32)C1 [Compound 50], the IC50 is reported as less than 10 nM.
For CSc1ccc2nn(CC(=O)[C@H]3CC[C@H]4[C@@H]5CC[C@@H]6C[C@](C)(O)CC[C@]6(C)[C@H]5CC[C@]34C)nc2c1 [Compound 74], the IC50 was less than 10 nM.
With C[C@@]1(O)CC[C@@]2(C)[C@H](CC[C@@H]3[C@@H]2CC[C@]2(C)[C@@H](C(=O)Cn4cnc(F)c4)CC[C@@H]32)C1 [Compound 259] the IC50 was less than 10 nM.
With C[C@@]1(O)CC[C@@]2(C)[C@H](CC[C@@H]3[C@@H]2CC[C@]2(C)[C@@H](C(=O)Cn4ncc(C(=O)O)n4)CC[C@@H]32)C1 [Compound 211] the IC50 was greater than 500 nM.
In the case of C[C@@]1(O)CC[C@@]2(C)[C@H](CC[C@@H]3[C@@H]2CC[C@]2(C)[C@@H](C(=O)Cn4nc5ccc(Cl)c(F)c5n4)CC[C@@H]32)C1 [Compound 53], the IC50 is reported as less than 10 nM.
C[C@@]1(O)CC[C@@]2(C)[C@H](CC[C@@H]3[C@@H]2CC[C@]2(C)[C@@H](C(=O)Cn4cc([N+](=O)[O-])cn4)CC[C@@H]32)C1 [Compound 146] gave an IC50 of less than 10 nM.
CCCN(C)C(=O)c1cnn(CC(=O)[C@H]2CC[C@H]3[C@@H]4CC[C@@H]5C[C@](C)(O)CC[C@]5(C)[C@H]4CC[C@]23C)n1 [Compound 260] was tested, and the IC50 was less than 10 nM.
C[C@@]1(O)CC[C@@]2(C)[C@H](CC[C@@H]3[C@@H]2CC[C@]2(C)[C@@H](C(=O)Cn4nnc5c(F)c(F)ccc54)CC[C@@H]32)C1 [Compound 78] was tested, and the IC50 was less than 10 nM.
C[C@@]1(O)CC[C@@]2(C)[C@@H](CC[C@@H]3[C@@H]2CC[C@]2(C)[C@@H](C(=O)Cn4nc5cccc(F)c5n4)CC[C@@H]32)C1 [Compound 128] was tested, and the IC50 was less than 10 nM.
For C[C@@]1(O)CC[C@@]2(C)[C@H](CC[C@@H]3[C@@H]2CC[C@]2(C)[C@@H](C(=O)Cn4nc5ccccc5n4)CC[C@@H]32)C1 [Compound 11], the IC50 was less than 10 nM.
In the case of C[C@]12CC[C@@H](O)C[C@@H]1CC[C@@H]1[C@@H]2[C@@H](O)C[C@]2(C)[C@@H](C(=O)Cn3nccn3)CC[C@@H]12 [Compound 8], the IC50 is reported as greater than 500 nM.
For C[C@@]1(O)CC[C@@]2(C)[C@@H](CC[C@H]3[C@@H]4CC[C@H](C(=O)Cn5ccnn5)[C@@]4(C)CC(=O)[C@@H]32)C1 [Compound 197], the IC50 was greater than 500 nM.
With C[C@@]1(O)CC[C@@]2(C)[C@@H](CC[C@@H]3[C@@H]2CC[C@]2(C)[C@@H](C(=O)Cn4cc(C(=O)O)cn4)CC[C@@H]32)C1 [Compound 156] the IC50 was greater than 500 nM.
In the case of C[S+]([O-])c1ccc2nn(CC(=O)[C@H]3CC[C@H]4[C@@H]5CC[C@@H]6C[C@](C)(O)CC[C@]6(C)[C@H]5CC[C@]34C)nc2c1 (some centres unmarked) [Compound 103], the IC50 is reported as less than 10 nM.
